# Results as given in the supplement of paper PMC4967469.
# IC50 is the fitted dose that halves viability relative to control wells, and lower means more sensitive; where the fit passes the top or lowest dose, that dose stands as a limit. The AUC spans the tested range (256-fold, ending at the top dose) of the same fit; it is 1 without any effect and falls as sensitivity rises. For part of these data: An inferred top dose comes from the curve model; the source does not state it. For part of these data: Drugs with an entry number were screened twice under separate entries, and the two screens often disagree.
# Columns and labels:
# Test in all cases: Viability of human cancer cell lines after 72 h of drug (GDSC screen)
# PD-0332991 = compound: CC(=O)c1c(C)c2cnc(Nc3ccc(N4CCNCC4)cn3)nc2n(C2CCCC2)c1=O [PD-0332991]
# Method: (§1)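 Human cancer cell lines in 384-well plates, medium with 10% serum, drug for 72 h over a 256-fold dose range (nine 2-fold or five 4-fold steps up to the top dose). Adherent lines were fixed and stained with the nucleic acid dye Syto60, suspension lines read with resazurin; signal relative to control wells, capped at 0 and 100%. One two-parameter sigmoid per drug and line, fitted in a mixed model over all curves with the slope shared within a line.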
# AZD6244 = compound: Cn1cnc2c(F)c(Nc3ccc(Br)cc3Cl)c(C(=O)NOCCO)cc21 [AZD6244]; settings: screen: GDSC drug entry 1062
# Method: as §1
# ZM-447439 = compound: COc1cc2c(Nc3ccc(NC(=O)c4ccccc4)cc3)ncnc2cc1OCCCN1CCOCC1 [ZM-447439]; settings: top dose inferred
# Method: as §1
Cell Line,AUC (PD-0332991),IC50 (PD-0332991),AUC (AZD6244),IC50 (AZD6244),AUC (ZM-447439),IC50 (ZM-447439)
"RVH-421 (melanoma, adherent, top dose 4 µM)",0.834,> 4 µM,0.502,0.254 µM,0.949,> 4 µM
"RXF393 (kidney, adherent, top dose 4 µM)",0.714,1.29 µM,0.946,> 4 µM,0.856,> 4 µM
"Raji (Burkitt lymphoma, suspension, top dose 4 µM)",0.988,> 4 µM,0.982,> 4 µM,0.99,> 4 µM
"Ramos-2G6-4C10 (Burkitt lymphoma, suspension, top dose 4 µM)",0.846,2.3 µM,0.967,> 4 µM,0.724,0.963 µM
"SAS (head and neck, adherent, top dose 4 µM)",0.736,1.28 µM,0.967,> 4 µM,0.984,> 4 µM
"SAT (head and neck, adherent, top dose 4 µM)",0.866,> 4 µM,0.761,2.23 µM,0.789,2.97 µM
"SBC-1 (small cell lung carcinoma, suspension, top dose 4 µM)",0.989,> 4 µM,0.988,> 4 µM,0.879,3.84 µM
"SBC-5 (small cell lung carcinoma, adherent, top dose 4 µM)",0.99,> 4 µM,0.993,> 4 µM,0.942,> 4 µM
"SCC90 (head and neck, adherent, top dose 4 µM)",0.981,> 4 µM,0.975,> 4 µM,0.966,> 4 µM
"SCC-9 (head and neck, adherent, top dose 4 µM)",0.905,> 4 µM,0.916,> 4 µM,0.878,> 4 µM
"SCC-15 (head and neck, adherent, top dose 4 µM)",0.862,> 4 µM,0.914,> 4 µM,0.82,3.42 µM
"SCC-25 (head and neck, adherent, top dose 4 µM)",0.913,> 4 µM,0.822,2.74 µM,0.944,> 4 µM
"SCH (stomach, adherent, top dose 4 µM)",0.981,> 4 µM,0.988,> 4 µM,0.987,> 4 µM
"SF126 (glioma, adherent, top dose 4 µM)",0.92,> 4 µM,0.984,> 4 µM,0.946,> 4 µM
"SF268 (glioma, adherent, top dose 4 µM)",0.677,0.812 µM,0.984,> 4 µM,0.906,> 4 µM
"SF539 (glioma, adherent, top dose 4 µM)",0.989,> 4 µM,0.923,> 4 µM,0.922,> 4 µM
"SH-4 (melanoma, adherent, top dose 4 µM)",0.827,> 4 µM,0.491,0.234 µM,0.942,> 4 µM
"SHP-77 (small cell lung carcinoma, semi-adherent, top dose 4 µM)",0.853,2.63 µM,0.969,> 4 µM,0.96,> 4 µM
"SIMA (neuroblastoma, adherent, top dose 4 µM)",0.616,0.545 µM,0.985,> 4 µM,0.947,> 4 µM
"SJRH30 (rhabdomyosarcoma, adherent, top dose 4 µM)",0.908,> 4 µM,0.956,> 4 µM,0.923,> 4 µM
"SJSA-1 (bone, adherent, top dose 4 µM)",0.715,1.11 µM,0.797,2.17 µM,0.943,> 4 µM
"SK-ES-1 (Ewing sarcoma, semi-adherent, top dose 4 µM)",0.879,> 4 µM,0.926,> 4 µM,0.818,2.45 µM
"SK-GT-2 (stomach, adherent, top dose 4 µM)",0.921,> 4 µM,0.969,> 4 µM,0.831,2.73 µM
"SK-GT-4 (oesophagus, adherent, top dose 4 µM)",0.762,1.76 µM,0.982,> 4 µM,0.944,> 4 µM
"SK-LMS-1 (soft tissue, adherent, top dose 4 µM)",0.806,1.91 µM,0.987,> 4 µM,0.922,> 4 µM

Cell Line,AUC (PD-0332991),IC50 (PD-0332991),AUC (AZD6244),IC50 (AZD6244),AUC (ZM-447439),IC50 (ZM-447439)
"SK-LU-1 (lung adenocarcinoma, adherent, top dose 4 µM)",0.646,0.709 µM,0.726,1.33 µM,0.904,> 4 µM
"SK-MEL-1 (melanoma, suspension, top dose 4 µM)",0.993,> 4 µM,0.991,> 4 µM,0.986,> 4 µM
"SK-MEL-3 (melanoma, adherent, top dose 4 µM)",0.911,> 4 µM,0.662,0.762 µM,0.981,> 4 µM
"SK-MEL-5 (melanoma, adherent, top dose 4 µM)",0.845,3.92 µM,0.95,> 4 µM,0.934,> 4 µM
"SK-MEL-31 (melanoma, adherent, top dose 4 µM)",0.978,> 4 µM,0.985,> 4 µM,0.985,> 4 µM
"SK-MES-1 (lung squamous cell carcinoma, adherent, top dose 4 µM)",0.764,1.58 µM,0.866,> 4 µM,0.908,> 4 µM
"SK-MG-1 (glioma, adherent, top dose 4 µM)",0.831,2.58 µM,0.981,> 4 µM,0.913,> 4 µM
"SK-MM-2 (myeloma, suspension, top dose 4 µM)",0.97,> 4 µM,0.987,> 4 µM,0.987,> 4 µM
"SK-N-AS (neuroblastoma, adherent, top dose 4 µM)",0.805,2.39 µM,0.98,> 4 µM,0.925,> 4 µM
"SK-N-FI (neuroblastoma, adherent, top dose 4 µM)",0.898,> 4 µM,0.915,> 4 µM,0.99,> 4 µM
"SK-N-SH (neuroblastoma, adherent, top dose 4 µM)",0.823,2.33 µM,0.953,> 4 µM,0.916,> 4 µM
"SK-OV-3 (ovary, adherent, top dose 4 µM)",0.85,> 4 µM,0.978,> 4 µM,0.953,> 4 µM
"SK-PN-DW (Ewing sarcoma, adherent, top dose 4 µM)",0.919,> 4 µM,0.929,> 4 µM,0.82,2.41 µM
"SKG-IIIa (cervix, adherent, top dose 4 µM)",0.983,> 4 µM,0.982,> 4 µM,0.937,> 4 µM
"SKM-1 (haematopoietic neoplasm, suspension, top dose 4 µM)",0.597,0.475 µM,0.758,1.52 µM,0.731,1.23 µM
"SKN (uterus, adherent, top dose 4 µM)",0.601,0.503 µM,0.95,> 4 µM,0.821,2.97 µM
"SLVL (B-cell lymphoma, suspension, top dose 4 µM)",0.977,> 4 µM,0.979,> 4 µM,0.978,> 4 µM
"SNB75 (glioma, adherent, top dose 4 µM)",0.978,> 4 µM,0.947,> 4 µM,0.957,> 4 µM
"SNG-M (endometrium, adherent, top dose 4 µM)",0.929,> 4 µM,0.96,> 4 µM,0.912,> 4 µM
"SNU-61 (large intestine, adherent, top dose 4 µM)",0.959,> 4 µM,0.978,> 4 µM,0.945,> 4 µM
"SNU-81 (large intestine, adherent, top dose 4 µM)",0.841,> 4 µM,0.935,> 4 µM,0.811,3.09 µM
"SNU-387 (liver, adherent, top dose 4 µM)",0.826,2.88 µM,0.98,> 4 µM,0.953,> 4 µM
"SNU-407 (large intestine, adherent, top dose 4 µM)",0.823,2.89 µM,0.949,> 4 µM,0.811,2.57 µM
"SNU-449 (liver, adherent, top dose 4 µM)",0.889,> 4 µM,0.986,> 4 µM,0.97,> 4 µM
